PubChem BioAssay AID624296 (National Center for Advancing Translational Sciences (NCATS), 2012)
About 9,900 (2.8%) of roughly 350,000 compounds were called active. The shares of active, inactive and inconclusive entries below differ from those in the screen. Calls come from the whole dose curve; as a rule, active = well fitted activation curve with a large enough effect; inconclusive = small, poorly fitted or top-dose-only effect; inactive = no such curve, though single readings can be large or run the other way. No potency is given beside an inconclusive call; the fits are too rough.

Test: A quantitative high throughput screen for small molecules that induce DNA re-replication in MCF 10a normal breast cells. Note: nearly all actives have a fitted effect of over 50% in size.
Conditions: MCF 10A DNA re-replication, Hoechst nuclear intensity, 48 h; series mostly up to 46.1 µM
Potency is the fitted concentration of half-maximal effect; tags give direction and shape of the fitted curve.

Row | Compound | Potency
1 | Brc1ccc(OCc2ccccc2)c(CNCc2ccncc2)c1 | inconclusive [activator, single point]
2 | Cc1ccc(NC(=O)CSc2nnc(-c3cnccn3)n2-c2ccccc2)cc1 | inactive
3 | Cc1onc(-c2ccccc2)c1C(=O)OCC(=O)N1CCC(C)CC1 | inconclusive [activator, partial curve, poor fit]
4 | Cc1oc(-c2ccc(Cl)cc2)cc1C(=O)/C(C#N)=C/Nc1ccccc1 | active: 13 µM
5 | COc1ccc(/C=N/NC(=O)CCn2cnc(-c3ccccc3)c2-c2ccccc2)cc1OC | active: 8.2 µM
6 | O=C(/C=C/c1ccc([N+](=O)[O-])cc1)NCCc1ccccc1 | inactive
7 | COc1ccc(OC)c(C(C[N+](=O)[O-])c2c(C)cc3ccccn23)c1 (configuration not stated) | inconclusive [activator, single point]
8 | COc1ccc2c(c1)OC(=O)CC2c1cc(OC)c(OC)c(OC)c1 (configuration not stated) | inconclusive [activator, single point]
9 | O=C(CCNc1n[nH]c(=O)[nH]c1=O)N/N=C/c1ccc(C(F)(F)F)cc1 | inactive
10 | O=C(NCc1ccccc1)C1=C[C@H](c2ccc3c(c2)OCO3)C[C@H](OCc2ccc(CO)cc2)O1 | inconclusive [activator, partial curve, poor fit]
11 | CCOC(=O)c1ccc(Oc2cn[nH]c2-c2ccc(O)cc2O)cc1 | inconclusive [activator, single point]
12 | Cc1ccc(NC(=O)c2ccc(NS(=O)(=O)c3cccc4cccnc34)cc2)cc1 | inconclusive [activator, partial curve, poor fit]
13 | Brc1ccc(C=Nc2ccc(Nc3ccccc3)cc2)s1 | inconclusive [activator, single point]
14 | NC(=O)C1CC(=O)N(c2ccc(OCc3ccc(Cl)cc3)cc2)C1 (configuration not stated) | inactive
15 | COc1cc(/C=C/C(=O)NC(C)C)ccc1OCc1ccccc1 | inconclusive [activator, single point]
16 | CCNc1nc(NCC)nc(SCCOc2ccc(C)cc2)n1 | active: 20.6 µM
17 | CCOC(=O)C1=C(Nc2ccc(Br)cc2)CC(C)(O)C(C(=O)OCC)C1c1ccccc1 (configuration not stated) | inconclusive [activator, single point]
18 | O=C(N/N=C/C1CC2CCC1C2)c1c[nH]c2ccccc12 (configuration not stated) | inactive
19 | Cc1cc(C)n(-c2ccc(NC(=O)C3CCCCN3Cc3cccc4c3OCO4)cc2)n1 (configuration not stated) | inconclusive [activator, single point]
20 | COc1ccc([C@H]2C(C(=O)O)=C[C@@H](C(C)(C)C)N2S(=O)(=O)c2ccccc2)cc1 | inconclusive [activator, single point]
21 | CC(C(=O)Nc1ccccc1-c1ccccc1)N1CCN(S(=O)(=O)c2ccccc2)CC1 (configuration not stated) | inconclusive [activator, partial curve]
22 | CC(C)(C)c1cc(C(=O)N/N=C/c2ccc(-c3ccccc3[N+](=O)[O-])o2)n[nH]1 | inconclusive [activator, single point]
23 | CCC(CC)C(=O)c1c[nH]c(C(=O)NN)c1 | active: 10.3 µM

Row | Compound | Potency
24 | O=C1CS(=O)(=O)N(Cc2ccccc2F)c2ccc(Br)cc21 | inconclusive [activator, partial curve]
25 | O=C(N/N=C\c1cn[nH]c1-c1ccc(Cl)cc1)c1cccs1 | inconclusive [activator, single point]
26 | NC(=O)C1CCN(C(=O)c2cc(S(=O)(=O)N3CCOCC3)c(Cl)cc2Cl)CC1 | inconclusive [activator, partial curve, poor fit]
27 | Cc1cccc(Nc2nnc(SC/C(O)=C(\C#N)c3nc4ccccc4[nH]3)s2)c1 | active: 16.4 µM
28 | COC(=O)c1cc(NC(=O)c2cc(-c3ccccc3Cl)oc2C(F)(F)F)ccc1N1CCOCC1 | inconclusive [activator, single point]
29 | Cc1ccc(C)c(Oc2cc(NC(=O)CCCn3nc(C)c([N+](=O)[O-])c3C)cc([N+](=O)[O-])c2)c1 | inconclusive [activator, single point]
30 | O=C(NC1CCCCC1)N1CCSC1=Nc1ccccc1 | inconclusive [activator, single point]
31 | COc1cccc(C(=O)N/N=C/c2ccc(OC)c(COc3ccccc3C(N)=O)c2)c1 | inconclusive [activator, full curve, poor fit]
32 | Cc1ccc(CN/C=C/C(=O)c2ccc(Br)cc2)cc1 | inconclusive [activator, single point]
33 | CCc1ccc(N/C(N)=N/c2nc(CSc3ccccn3)cc(=O)[nH]2)cc1 | inconclusive [activator, single point]
34 | O=C(COc1ccccc1)Nc1ccc2[nH]ncc2c1 | inactive
35 | COc1ccc(NC(=S)NC(NC(C)=O)C(Cl)(Cl)Cl)c([N+](=O)[O-])c1 (configuration not stated) | inactive
36 | O=C1C=C(c2ccc3ncccc3c2)C[C@@H](c2ccc(Cl)cc2)C1 | active: 23.1 µM
37 | OC(COC(c1ccccc1)c1ccccc1)CN1CCN(c2ccccn2)CC1 (configuration not stated) | inconclusive [activator, partial curve, poor fit]
38 | O=C(c1cc(Sc2ccc(Cl)cc2)nc2ccccc12)N1CCN(c2ccccn2)CC1 | inconclusive [activator, partial curve, poor fit]
39 | COc1ccc2c(C(=O)c3ccc(C)cc3)n(Cc3ccc(C(N)=O)cc3)[n+]([O-])c2c1 | inactive
40 | COc1ccc(/C=N/NC(=O)c2ccc(F)cc2)cc1CN1CCc2cc(OC)c(OC)cc2C1C (configuration not stated) | inconclusive [activator, single point]
41 | CCCc1ccc(OCC(O)CN2CCc3ccccc3C2)cc1 (configuration not stated) | inconclusive [activator, partial curve, poor fit]
42 | COc1cc(C(CCN2CCOCC2)c2c(OC)cc(OC)c3c2OC(=O)CC3c2ccc(N(C)C)cc2)cc(OC)c1OC (configuration not stated) | inconclusive [activator, full curve, poor fit]
43 | COc1ccc(C2CC(c3cccc(C(F)(F)F)c3)=NN2c2ccc(S(N)(=O)=O)cc2)cc1 (configuration not stated) | inconclusive [activator, full curve, poor fit]
44 | Cc1cccc(N2CCN(CCCNC(=O)C3CCCN(c4ncnc5c4nc4n5CCCCC4)C3)CC2C)c1 (configuration not stated) | inconclusive [activator, partial curve, poor fit]
45 | O=C(NCCc1ccccn1)c1cc(-c2ccc(Cl)cc2)nc2ccccc12 | inconclusive [activator, single point]
46 | CC(O)CN(CCN(CC(C)O)CC(C)O)CC(C)O (configuration not stated) | inactive

Row | Compound | Potency
47 | CCOC(=O)C1CCN(C(=O)Cn2c(=O)c3cccn3c3cccnc32)CC1 | inactive
48 | O=C(CC(Nc1ccc(F)cc1)C(=O)OCC(=O)c1cccs1)c1ccccc1 (configuration not stated) | inconclusive [activator, single point]
49 | CCN(c1ccccc1)S(=O)(=O)c1ccc(OCC(=O)N2CCCC2)cc1 | inactive
50 | O=C(CSC1CS(=O)(=O)c2cc([N+](=O)[O-])ccc21)NNC(=O)c1ccccc1 (configuration not stated) | inconclusive [activator, single point]
51 | O=C1CC(C(=O)Nc2nccs2)C(c2ccccc2)O1 (configuration not stated) | inconclusive [activator, single point]
52 | CCC(C)[C@H](NC(=O)N1CCn2c1nc1ccccc12)C(=O)NCCc1ccc(OC)c(OC)c1 (some centres not stated) | inactive
53 | O=C(NNc1nc(-c2ccc(Cl)cc2)cs1)c1ccco1 | inconclusive [activator, partial curve]
54 | COc1ccc(C2=NN(C(=O)/C=C/c3ccccc3)C(c3ccccc3)C2)c(OC(C)=O)c1 (configuration not stated) | inconclusive [activator, single point]
55 | C=CC[C@H](CC(=O)N(CCO)Cc1ccccc1)C(=O)N[C@@H](COC(=O)[C@@H](CC=C)Cc1ccc(F)cc1)Cc1ccccc1 | inconclusive [activator, single point]
56 | Cc1c([N+](=O)[O-])c2ccc(O)cc2n1-c1ccccc1 | inactive
57 | O=C(NN1C(=O)/C(=C/c2cccs2)SC1=S)c1ccccc1 | inactive
58 | Fc1cccc(Cc2noc(CN3CCC(c4ccncc4)CC3)n2)c1 | inactive
59 | Cn1nc(C(F)(F)F)c2cc(C(=O)Nc3ccc(F)c(Cl)c3)sc21 | inconclusive [activator, single point]
60 | CC1(C)Cc2c(cnn2-c2ccccc2)C(=O)/C1=N\NC(=O)c1ccccc1O | inactive
61 | CNC(=O)c1ccc(OCc2ccccc2)c(OC)c1 | inconclusive [activator, full curve, poor fit]
62 | CN1CCCN(Cc2ccccc2Br)CC1 | inconclusive [activator, partial curve, poor fit]
63 | Cc1ccc(Cl)cc1NC(=O)C1CCCN(S(=O)(=O)c2c(C)noc2C)C1 (configuration not stated) | inactive
64 | COc1cccc(CNc2ccc(F)c(Cl)c2)c1O | inconclusive [activator, partial curve, poor fit]
65 | CCN(CC(=O)NCCc1ccc(S(N)(=O)=O)cc1)Cc1ccccc1 | inactive
66 | COc1ccc(S(=O)(=O)N(C)C)cc1NC(=O)Cc1c[nH]c2ccccc12 | inactive
67 | COc1ccccc1OCCn1c(=S)[nH]c2ccccc21 | inconclusive [activator, partial curve, poor fit]
